In all, about 13,000 compounds were measured (“IFI”: median about 4, highest 2% from about 17 on). The list shows a part of the results.
Experiment: GSK_TCMDC: Inhibition Frequency Index (IFI). The number of non-kinase HTS assays where a compound showed > 50 % inhibition, expressed as a percentage of the number of such assays in which the compound was tested (-0 is zero)
Type: functional

Compound	IFI [%]
CCCCCCCN1CCC(CC(=O)Nc2ccnc3ccc(OC)cc23)CC1	1.45
CCNC(=O)Nc1ccc(-c2cccc(-c3nc4cccc(C)c4[nH]3)c2)cc1	5
Cc1ccn2cc(-c3ccc(NC(=O)c4ccc(Br)o4)cc3)nc2c1	10.4
CCN1CCCC1CNC(=O)c1cc2c(-c3ccc(Cl)cc3)nn(C)c2s1 (stereo unspecified)	6.25
CN1CCN(CCCN(Cc2ccc(-c3cccc(CNC4CCCC4)c3)cc2)C(=O)/C=C/c2ccccc2)CC1	6.67
Cc1cc(C)cc(N2C(N)=NC(N)=NC2(C)C)c1	1.5
CCOC(=O)c1c(C)noc1Nc1ccc(OC)cc1	1.47
FC(F)(F)c1cccc(Nc2nc3nonc3nc2NC2C3CC4CC(C3)CC2C4)c1 (stereo unspecified)	20.6
CCNc1cc(C(=O)N[C@@H](Cc2ccccc2)[C@H](O)CNC2CCC(C)(C)C2)cc(N2CCCCS2(=O)=O)c1 (stereo partly specified)	1.48
COc1cc2c(cc1OC)CN(CCCCNC(=O)c1ccc(NC(=O)c3cc(Cl)cc(Cl)c3)cc1)CC2	1.79
COc1ccc(CNCc2ccccc2)cc1-c1ccc(S(=O)(=O)NCCN2CCCC2)c(F)c1	6.54
CC(C)c1ccc2c(c1)C(=O)c1ccc(C(=O)O)cc1S2(=O)=O	0
CC(C)CNCc1cccc(-c2ccc(CNc3ccc4ncccc4c3)cc2)c1	10.8
CN1CCCc2cc(NC(=O)c3cc(-c4ccc(Cl)cc4)cs3)ccc2C1	10.2
OC(CNc1ccnc(Nc2ccc(Cl)cc2)n1)c1ccc(C(F)(F)F)cc1 (stereo unspecified)	13.5
CC(C)c1ccc(NC(=O)c2ccc(C(=O)NC3CCN(Cc4ccsc4)C3)cc2)cc1 (stereo unspecified)	4.42
CCN(CCNc1nc(NCCc2cnc[nH]2)nc(N(CCC#N)Cc2ccccc2)n1)c1cccc(C)c1	3.65
COc1ccc(-c2cc3nc4c(c(NCCCn5ccnc5)n3n2)CCCC4)cc1	10.4
CCCCNc1nccc2ccc(-c3ccncc3)cc12	2.86
CC(C)C1CCc2nc(N)nc(N)c2C1 (stereo unspecified)	3.52
O=C(N[C@@H](CC1CCCCC1)C(=O)NCCN1CCCC1)c1ccc(O)c(-c2cccc(C(F)(F)F)c2)c1	2.19
O=c1cc(NCC2(CNCc3cn(Cc4ccccc4)c4ccccc34)CCCCC2)[nH]c2ccccc12	8.21
O=[N+]([O-])c1cc(C(c2ccc(O)c([N+](=O)[O-])c2)C(Cl)(Cl)Cl)ccc1O	1.63

Compound	IFI [%]
COc1cccc(CNC[C@@H](O)[C@H](Cc2ccccc2)NC(=O)c2cc3c4c(c2)c(C(C)C)cn4CCS(=O)(=O)N3C)c1	5.97
CCCc1c(C(=O)Nc2ccc3c(c2)CCN(C2CCC2)CC3)cnn1-c1ccc(Cl)cc1	9.85
c1cncc(-c2cccc(CNc3nccc(Nc4ccc(OCCN5CCOCC5)cc4)n3)c2)c1	0
O=C(Cn1c2ccccc2c(=O)c2ccc(Cl)cc21)Nc1ccc(C(F)(F)F)cc1	0.67
Cc1c(CNCCCNc2cc(=O)c3ccccc3[nH]2)sc(-c2ccco2)c1Br	5.19
N=C(NCc1ccc(O)cc1)Nc1nc(-c2ccc(OCCCn3ccnc3)cc2)cs1	6.47
CCOc1c(Cl)cc(Cl)cc1CNCCCNc1nc2ccccc2[nH]1	7.25
CCOC(=O)c1c[nH]c2c(sc3cc(OC)ccc32)c1=O	0
COc1cc(CCNC(=O)Cc2ccc3ccccc3c2)ccc1OCc1ccccc1	1.63
CC1CCCCC1N(C)C1CCN(CCCNC(=O)C=Cc2ccccc2Cl)CC1 (stereo unspecified)	5.98
COc1ccc(-c2nonc2NC(=O)c2cccc(Cl)c2)cc1OC	1.03
CCCCCCN(CCCCCC)CC(O)c1c(OC)ccc2ccccc12 (stereo unspecified)	5.93
Cc1ccc(CN2CCCN(Cc3cccc(C(=O)Nc4ccc(C(C)(C)C)cc4)c3)CC2)s1	9.59
CN(C)c1cc2c(Nc3ccc4nc(Cc5ccccc5)[nH]c4c3)ncnc2cn1	0.79
CCCCN(CCCC)CCNC(=O)c1cccc(NC(=O)N2CCc3cc(SC)c(C(F)(F)F)cc32)c1	8.53
Cn1cnc2c(Nc3ccncc3)nc(-c3ccc4c(c3)OCO4)nc21	2.94
COc1cc2c(cc1C(F)(F)F)N(C(=O)Nc1cc(Br)cc(-c3cccnc3)c1)CC2	3.55
CC(C)(C)C(=O)N1CCN(c2ccc([N+](=O)[O-])c(NC3CC3)c2)CC1	1.4
Nc1nc(N)c2c(ccc3c2ccn3Cc2ccc(Cl)cc2)n1	13.2
COc1cc(OC)c(NC(=O)C2c3ccccc3C(=O)N(CC(C)C)C2c2cccs2)cc1Cl (stereo unspecified)	0
Cc1ccc(S(=O)(=O)N2CCN(C(=O)c3cc(-c4cccs4)n[nH]3)CC2)c(C)c1	-0
Cc1cccc2nc(-c3ccc(-c4ccc(C(=O)NCCc5cn(C)cn5)cc4)s3)[nH]c12	4.81
CC(C)(C)c1ccc(NC(=O)c2cccc(CN3CCCN(Cc4cccc(C#N)c4)CC3)c2)cc1	7.75

— ChEMBL document CHEMBL1157539, “Thousands of chemical starting points for antimalarial lead identification” (Nature, 2010)
